According to PubChem BioAssay AID1963576 (National Center for Advancing Translational Sciences (NCATS), 2024):
Hit rate of the full screen: of about 46,000 compounds, about 60 (0.1%) were called active. Another 3% or so got no clear call; they are omitted. The call rests on the fitted dose curve; in most records, active means well fitted inhibition curve with a large enough effect; inconclusive means small, poorly fitted or top-dose-only effect; inactive means no such curve, though single readings can be large or run the other way. Some of the results follow.

Assay: Primary qHTS assay for Inhibitors of ovarian cancer metastasis using an organotypic tumor microenvironment (TME) model. Further: nearly all actives have a fitted effect of over 65% in size.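 On activity change, negative = inhibition: plate controls were DMSO wells for no effect and tomatine positive control wells for full effect.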
Settings: SKOV3ip1-GFP adhesion/invasion on 3D omental model, fluorescence; series mostly up to 45.8 µM; activity change, negative = inhibition: at the top concentration
How it was run: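 Adhesion/invasion was scored as fixed GFP-labeled SKOV3ip1 cell counts (488/509 nm), normalized to DMSO and tomatine controls. Cancer cells in serum-free medium, with four compound doses (0.36-46 umol/L), sat 2 hr at RT then 16 hr at 37 C on a 48 hr fibroblast/mesothelial/ECM culture.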

outcome, inactive:
CCOC(=O)c1cccc(NC(=O)NCc2ccc3c(c2)CCN3C(=O)c2ccccc2)c1, CCc1ccccc1NC(=O)C(=O)NCC(c1cccnc1)N1CCN(c2ccccc2F)CC1 (stereo unspecified), Cc1ccc(NC(=O)C2CCC(CNS(=O)(=O)c3csc(C(N)=O)c3)CC2)cc1Cl (stereo unspecified), Cc1ccc(-c2cn3c(n2)sc2cc(C(=O)NC(C)C45CC6CC(CC(C6)C4)C5)ccc23)cc1 (stereo unspecified), CCc1nn2c(=O)cc(COC(=O)c3ccco3)nc2s1, COc1ccccc1N1CCN(CCCNC(=O)c2cnn(-c3ccccc3)c2C2CCN(C(=O)OC(C)(C)C)CC2)CC1, Cc1nc2ccn(Cc3cccs3)c(=O)c2cc1C(=O)Nc1ccccc1, Cc1ccc(/C=C/c2onc(C)c2S(=O)(=O)N2CCC(C(=O)NCC(C)c3ccccc3)CC2)cc1 (stereo unspecified), CCc1ccc(-n2c(Cc3ccccc3)nnc2SCc2nc(-c3cccs3)no2)cc1, Cc1ccc(C)n1-c1nnc(N2CCCC(C(=O)NCc3cccc(Cl)c3)C2)s1 (stereo unspecified), COc1ccc(NS(=O)(=O)c2ccc3[nH]c4c(c3c2)CCCC4)cc1Cl, COCCCNC(=O)C1CCN(c2nn3cc(-c4ccc(F)cc4)nc3s2)CC1, CC1=C(C(=O)Nc2ccccc2)C(c2cccs2)n2nc(SCc3ccccc3F)nc2N1 (stereo unspecified), CN1C(=O)Cc2cc(S(=O)(=O)CCC(=O)Nc3ccc(F)c(Cl)c3)ccc21, O=C(CSc1nnc(NC(=O)Nc2ccccc2)s1)Nc1cccc(F)c1

Activity change, negative = inhibition, inactive:
CCN1CCN(c2ncc3c(n2)CCN(Cc2ccc(OC(C)C)cc2)C3)CC1 11.2%, Cc1ccc(NS(=O)(=O)c2ccc3c(c2)CCCN3C(=O)C2CCC2)c(C)c1 1.9%, CCOC(=O)c1c(S(=O)(=O)NCC(=O)Nc2cc(C)ccc2C)c(C)n(C)c1C 0.955%, CCc1nn(Cc2cc(C)ccc2C)c(=O)c2cc3cc(C)ccc3n12 25.1%, CCN(CC)CCCCNc1nc2cc(Cl)c(Cl)cc2nc1-c1ccc(-c2cccs2)s1 -13.2%, CCCSc1nc2sc3c(c2c(=O)n1Cc1ccccc1)CC(C)(CC)OC3 (stereo unspecified) 7.96%, COc1ccc(Cl)cc1-n1nnc(-c2nsc(NC(=O)c3ccccc3Cl)n2)c1C 72.1%, COc1ccc(C2(CNC(=O)C(=O)Nc3ccc(F)cc3)CCCC2)cc1OC 3.96%, COC(=O)c1nnn(-c2cccc(C)c2)c1C(=O)OC -20.8%, COc1ccc(N2CC(NC(=O)c3ccc(Br)o3)CC2=O)cc1 (stereo unspecified) -0.186%, COc1ccc(N2CCN(C(=O)c3cc4c(s3)-c3ccccc3OC4)CC2)cc1 -12.7%, COc1ccc(CN2CCN(c3ncnc4sc5c(c34)CC(C)CC5)CC2)cc1F (stereo unspecified) 8.67%, Cc1cc(Cl)ccc1NC(=O)CN(c1ccccc1Br)S(C)(=O)=O 16.7%, CCOc1ccccc1CNC(=O)C1CCN(S(=O)(=O)c2ccc3c(ccn3C)c2)CC1 -5.59%, O=C(Cn1ncc2c([nH]c3ccccc32)c1=O)NCC1CCN(Cc2ccc(F)cc2)CC1 4.85%, Cc1ccccc1C(=O)Nc1nc(-c2nnn(-c3ccc(C(C)C)cc3)c2C)ns1 -18%, CC(C)C(=O)Nc1ccc([N+](=O)[O-])c(C(F)(F)F)c1 -4.88%, CCn1cc(S(=O)(=O)c2cccc(Cl)c2)c(=O)c2cc(F)c(N3CCN(c4ccccc4)CC3)cc21 9.6%, CC1=C(C(=O)NCc2ccc(Cl)cc2)C2(CCCCC2)OC1=O -8%, COc1cc(OC)c(NC(=O)Cn2c(=O)oc3cc(S(=O)(=O)N4CCCC4)ccc32)cc1Cl 8.66%, Cc1ccc(CN2C(=O)c3oc4ccc(C)cc4c(=O)c3C2c2ccc(O)cc2)cc1 (stereo unspecified) 4.62%, CCCCCn1c(-c2ccc(OC)c(OC)c2)nc2ccccc21 -4.85%, Cc1ccc(Cl)cc1N1CCN(S(=O)(=O)c2ccc3c(c2)CCCN3C(=O)C2CCC2)CC1 -14.3%, COc1cc2c(=O)n(CCC(=O)NCC3CCCO3)c(=O)n(CC(=O)Nc3ccc(C)c(C)c3)c2cc1OC (stereo unspecified) 19.5%, Cc1ccc(OCC(=O)N(Cc2ccco2)Cc2ccc(C)o2)cc1 -8.92%, COc1ccc(-c2cc(C(F)(F)F)n3nc(C(=O)Nc4ccccc4SC)cc3n2)cc1OC 50.7%, CCC(C)NC(=O)c1nn(-c2ccc(C)cc2)c(=O)n(C)c1=O (stereo unspecified) -1.7%, CCOc1ccccc1NC(=O)c1cnn2c(C(F)F)cc(-c3ccccc3)nc12 3.89%, CC(C)c1cccc(OCCn2c(-c3ccc(Cl)cc3)nc3ccccc3c2=O)c1 -21.1%, COc1cccc(CCNC(=O)c2c(O)nc3ccccn3c2=O)c1 5.4%, CC(=O)O[C@]1(C(C)=O)CC[C@@H]2[C@@H]3C[C@H](C)C4=CC(=O)CC[C@]4(C)[C@H]3CC[C@@]21C 20%, Cc1ccccc1C(=O)OCc1cc(=O)n2nc(-c3cccs3)sc2n1 4.16%, CN(C)CCN(Cc1ccco1)C(=O)c1oc2ccccc2c1NC(=O)c1ccccc1 -14.9%, Cc1ccc(C)c(NC(=O)c2cc(S(=O)(=O)N3CCCCCC3)ccc2F)c1 1.06%, O=C(Nc1cc(F)ccc1F)N1CCC(CN2CCCC2)CC1 25.3%, Cn1cc(S(=O)(=O)c2cccc(Cl)c2)c(=O)c2cc(F)c(N3CCN(c4ccccc4)CC3)cc21 -5.37%, Cc1ccc2c(=O)c(C(=O)c3cccc(Cl)c3)cn(CC(=O)Nc3ccc4c(c3)OCCO4)c2n1 3.5%, CCOc1ccc(NC(=O)CN2CCCN(Cc3cc(C)ccc3C)S2(=O)=O)cc1 -7.21%, CCOC(=O)c1ccccc1NC(=O)N1CCC(CN2CCCCC2)CC1 -2.94%, CCCC(=O)Nc1ccc(-c2nc3ncccc3o2)cc1C 11.7%, CCOC(=O)c1cccc(NC(=O)CCn2nc(C)c(S(=O)(=O)N3CCCCC3)c2C)c1 -0.939%, Cc1ccc(NC(=O)C(C)Sc2nc(=O)cc(N)n2-c2ccccc2)cc1 (stereo unspecified) -26.3%, CCc1ccccc1Nc1cc(C(=O)NC(C)c2ccccc2)c2ccccc2n1 (stereo unspecified) 16.5%, CCCc1nn2c(=O)cc(COC(=O)c3ccccc3NC(=O)c3ccc(Cl)cc3)nc2s1 -1.48%, COc1ccc2c(CNCCc3ccco3)c(C(=O)O)n(Cc3ccccc3)c2c1 1.84%, Cc1cc(S(=O)(=O)Nc2ccc(-c3ccc(N4CCCCCC4)nn3)cc2)c(C)cc1Cl -18.4%
